# Measurements reported in PubChem BioAssay AID1240 (Sanford-Burnham Center for Chemical Genomics, 2008).
# Out of some 50,000 compounds screened, about 800 (1.6%) showed an effect of 50% or more. The list shows a part of the results.
# Molecular target: Bcl-2-like protein 10 (Homo sapiens) (UniProt Q9HD36)
# Test: TR3 peptide-Bcl-B binding displacers, biochemical primary FP assay, phenotype converters (AID 1240);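 note: 0% = Bcl-B with tracer peptide and DMSO and 100% = tracer peptide lacking Bcl-B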
# Conditions: GST-Bcl-B / FITC-TR3 peptide fluorescence polarization; stronger effect = higher value; compound at 3.75 mg/L
# UniProt Q9HD36, sequence (Q9HD36 whole entry, looked up): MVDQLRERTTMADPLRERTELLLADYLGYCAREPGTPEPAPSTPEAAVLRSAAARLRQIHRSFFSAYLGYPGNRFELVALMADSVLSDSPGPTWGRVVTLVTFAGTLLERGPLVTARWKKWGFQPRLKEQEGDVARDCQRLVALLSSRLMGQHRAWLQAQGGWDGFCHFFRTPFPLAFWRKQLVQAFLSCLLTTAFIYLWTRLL
row,Structure (SMILES),displacement [%]
1,CC1=C(C(=O)OCCC#N)C(c2cccc(Oc3ccccc3)c2)NC(=O)N1 (stereo unspecified),-0.1
2,Cc1ccc(N2C(=O)CC(Sc3nc4ccccc4s3)C2=O)cc1Cl (stereo unspecified),-5.3
3,COc1ccc(C(=O)Nc2nnc(Cc3ccccc3)s2)cc1OC,1.2
4,Cc1ccc(C)c(C(=O)CN2C3=NCCN3c3ccccc32)c1,-3.3
5,COCCNC(=O)c1ccccc1[N+](=O)[O-],11.6
6,COC(=O)c1cccc(Nc2ncnc3ccc(Br)cc23)c1,-9.9
7,COc1cccc(NCCC(=O)c2cccc([N+](=O)[O-])c2)c1,8
8,COc1ccc(CCNC(=O)CN(c2ccc(C)cc2)S(=O)(=O)c2ccc(F)cc2)cc1OC,-6.1
9,COC(=O)c1c(NC(=O)CCCOc2ccccc2)sc2c1C(C(=O)OC)CC2 (stereo unspecified),-1.2
10,O=S(=O)(O)c1nc2ccccc2n1-c1ccccc1,-9.1
11,CCOc1ccc(C2=C/C(=C/c3ccc(C)o3)C(=O)O2)cc1,10.2
12,COc1ccc(C2Nc3cccc4cccc(c34)N2)cc1Br,13
13,O=C(CCN1C(=O)/C(=C/c2ccc(F)cc2)SC1=S)Nc1ncc(Cc2ccc(Cl)cc2)s1,10.3
14,C=CCc1cccc(/C=N/NC(=O)c2cc(C(C)(C)C)[nH]n2)c1O,-19.8
15,O=[N+]([O-])c1ccc(N/C(=N/S(=O)(=O)c2ccccc2)c2ccccc2)cc1,10.8
16,N#C/C(=C/C=C/c1ccccc1)c1nc(-c2cc3c(ccc4ccccc43)oc2=O)cs1,-7.3
17,Cc1cc(OCC(=O)NNC(=O)c2cccc(Cl)c2)ccc1Br,-13.4
18,COc1cccc2cc(C(=O)Nc3ccc(S(N)(=O)=O)cc3)c(=O)oc12,-8
19,O=C(N=Nc1c(O)n(CN2CCOCC2)c2ccccc12)c1ccccc1Cl,-3.7
20,Cc1cc(C)nc(/N=C(\N)Nc2cc(C(F)(F)F)ccc2Cl)n1,7.1
21,COCCNC(=O)c1ccc(Cl)c([N+](=O)[O-])c1,2.8
22,Cc1[nH]nc(N2CCCCC2)c1[N+](=O)[O-],2.6
23,CCOC(=O)C1=C(C)N=c2s/c(=C\c3ccc(NC(C)=O)cc3)c(=O)n2C1c1ccc(OC)cc1 (stereo unspecified),116
24,Cc1cc2nc(SCc3ccccc3Cl)[nH]c2cc1C,3.4

row,Structure (SMILES),displacement [%]
1,CCC(CO)N=Cc1ccc(Cl)cc1 (stereo unspecified),11.2
2,CNC(=O)CCC(=O)Nc1ccc(C)cc1C,12.8
3,CN1C(=O)NC(=O)/C(=C/c2cc(Cl)ccc2O)C1=O,-16.6
4,O=C1c2ccccc2C(=O)N1c1ncc(Cc2ccc(Br)cc2)s1,-1
5,CCOc1ccc(NC(=O)c2ccc(S(=O)(=O)N(CC)CC)cc2)c([N+](=O)[O-])c1,4
6,COc1ccc(NC(=O)Cc2ccc(Br)cc2)cc1,-3.1
7,Cc1ccc(S(=O)(=O)N2CCN(C(=O)COc3ccc(Cl)cc3)CC2)cc1,-15.1
8,O=C1CCCc2oc3ccc(NS(=O)(=O)c4ccc(F)cc4)cc3c21,0.3
9,COc1ccc(C(=O)Nc2ccc(NC(=O)c3ccc(Br)cc3)cc2)cc1,-1.2
10,COc1ccc(/C=C2\C=C(c3ccc(Br)cc3)OC2=O)cc1[N+](=O)[O-],70
11,C=CCN1C(=O)/C(=C\c2cc(Br)ccc2OCC)C(=O)NC1=S,-11.2
12,COc1cccc(OCC(=O)Nc2ccc3c(c2)OCCO3)c1,10.9
13,O=c1cc(=O)n(-c2ccccc2)c2ccccc12,-0.3
14,COc1ccccc1CC(=O)n1nnc2ccccc21,-5.7
15,COc1ccc(NC(=O)c2ccc(CN3CCN(Cc4ccccc4)CC3)cc2)cc1OC,27
16,CC(=O)N(C1=C(Nc2ccccc2)C(=O)c2ccccc2C1=O)c1ccccc1,2.3
17,O=C(OCCN1CCOCC1)c1ccc(O)cc1O,7.5
18,COc1ccc(C(=O)N/C(=C/c2ccc(-c3cc(Cl)ccc3Cl)o2)C(=O)NCCCO)cc1,8.5
19,CCc1cccc(C)c1NC(=O)CSc1nnnn1-c1ccccc1,-10.6
20,O=C(Cn1c(C(F)(F)F)nc2ccccc21)c1ccc(Cl)cc1,11.4
21,CC(C)Oc1ccc(C(=O)Nc2nc3ccccc3s2)cc1,-14.6
22,Cc1ccc(NC(=O)c2ccco2)c(C)c1,-9.1
23,C/C(=N\NC(=O)c1cc(-c2ccccc2)n[nH]1)c1ccc(Br)cc1,-4.7
24,COc1ccc(/C=N/Nc2nc3cc(C)ccc3cc2C)cc1OC,-9.9

row,Structure (SMILES),displacement [%]
1,COC(=O)c1cc(C(=O)Nc2ccc(C(C)=O)cc2)cc([N+](=O)[O-])c1,15.4
2,CCOC(=O)CC(=O)c1sc2nccc(N(C)C)c2c1N,4.6
3,Cc1ccc(OCC(=O)NCc2ccc(Cl)cc2)c(Br)c1,-4.5
4,CCC(C)NC(=O)CN(c1ccccc1OC)S(=O)(=O)c1ccccc1 (stereo unspecified),-1.7
5,CCOCCOC(=O)c1ccc(NC(=O)Nc2ccc(Cl)cc2)cc1,-4
6,CC(=O)c1cccc(NC(=O)c2ccc(-c3cc(Cl)ccc3Cl)o2)c1,-8.8
7,COc1cc(C2N(Cc3ccccc3)CCN2Cc2ccccc2)ccc1O,5
8,CCOC(=O)/C=C/COc1ccc2oc(C)c(C(=O)OC)c2c1,3.9
9,O=C(N/N=C/c1ccc(O)cc1)C(O)C(O)C(=O)N/N=C/c1ccc(O)cc1 (stereo unspecified),-1
10,c1ccc(CSc2nc3ccccc3s2)nc1,-4.3
11,CCOc1ccc(Nc2ccc3noc4c3c2C(=O)c2ccccc2-4)cc1,-2
12,CCCCOc1ccc(C(=O)N2CCCc3ccccc32)cc1,0.7
13,O=C(O)C1CCCCN1C(=O)c1ccccc1 (stereo unspecified),-8
14,CC(Oc1cccc(Cl)c1)C(=O)Nc1ccc(C(N)=O)cc1 (stereo unspecified),21.6
15,CCOC(=O)c1ccccc1NC(=O)CCC1CCCC1,3.3
16,O=C(Nc1cccc(Cl)c1)/C(=C/c1cccnc1)NC(=O)c1cccc(Br)c1,-5.6
17,O=C(c1cccc(F)c1)N1CCN(Cc2cccc(F)c2)CC1,-19.6
18,O=C(NCc1cccs1)c1cnn2c1NC(c1ccc(Br)cc1)CC2C(F)(F)F (stereo unspecified),0.1
19,COc1ccc(C2=C/C(=C/c3ccco3)C(=O)O2)cc1,40.1
20,COc1ccc(-c2cc(C(F)(F)F)n3ncc(C(=O)NCc4ccco4)c3n2)cc1,30.7
21,COc1ccc(/C=C2\C(=O)NC(=O)N(c3cc(C)cc(C)c3)C2=O)cc1,5.9
22,CC[N+]1=C(/C=C/Nc2ccccc2)SCC1,-0.3
23,COc1cc(NC(=O)c2cccc(Br)c2)ccc1NC(=O)c1cc2ccccc2o1,3.2
